Results: the supplement of paper PMC11417369
The list shows a part of the results.

tested on: PfAP2-HC AP2 domain (GST-tagged); assay: gcPBM binding intensity (ln(normalized median fluorescence intensity)); higher = stronger DNA binding
Method in brief: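 For binding intensity, the highest Masliner-normalised natural-log median intensity across replicate spots of either probe orientation was taken. Protein bound to the array was stained with Alexa488 anti-GST antibody and scanned at 488 nm. The protein, GST-tagged P. falciparum DNA-binding domains from E. coli at about 25 μg on average, had been applied for 1 h to an Agilent 4 × 180k array of primer-extended double-stranded 36-bp intergenic genomic probes and negative controls.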

Sequence | gcPBM binding intensity (ln)
AAGTACATACATAAAACACACACATATATATATATA [CACACA_site8541] | 10
AATATATAAATCAATAGTACATATATATATATATAT [XGTACX_site3898] | 9.6
ATTAAATATGAGGGAACACACACATGATATATAAAT [CACACA_site8755] | 10.3
TTATATAAAGAATGTACACACAGAAATGCACCCACA [CACACA_site2282] | 10.6
CCAAAAAATATATGTAGTACTACATTATTAAATATG [XGTACX_site5128] | 9.65
AAAAAAAACACGCGCACACACACACCCACAGACACA [CACACA_site5253] | 10.7
TATATATATAAATACACACACACACCCCAAAGCGTA [CACACA_site4211] | 10.6
TATTTTTTAAAAAATTATAAATAAAATTATATTACG [CACACA_negctrl_site324] | 9.28
TATAATATATTCACTCGTACATATTTAATAATATCT [XGTACX_site6209] | 9.64
ACAGTATATTAAAAAATACACACGTATTATATCTAC [CACACA_site2640] | 9.83
AAATTCAATTTGCGCTGTACATGAAGATATAAATTT [XGTACX_site4844] | 9.71
ATACCTGTTGTGTTACGTACATAATTTTAATGTTTG [XGTACX_site8181] | 9.93
TTTTAATTAAATAAATGTACTCATTCTATTATTTAT [XGTACX_site3032] | 9.63
ATAAATTTTTTATGAACACACAAATACCCACGCTCA [CACACA_site2659] | 9.88
TATTACACATATTATGTGCACATATATAATCAATAT | 9.78
ATTTTATTTTTGTGCACACTGATAAATTGAAAAGAG [CACACA_site2948] | 9.61
TATATATATATAATATGTACATATATTAAGCATTTT [XGTACX_site4470] | 9.73
AAAAAAAAAAATTAAAGTACTAATTAAAATTATATG [XGTACX_site5289] | 9.38
TTATATATATGTGTATGTACATATATATATATATAT [XGTACX_site1141] | 9.87

Sequence | gcPBM binding intensity (ln)
AAAAGAATAATAATTTATGTATATTAATTAAAGAAT [XGTACX_negctrl_site402] | 9.69
TATCATATATTATATGCACACATGTTTTTCAAGAAT [CACACA_site1892] | 9.74
TATATAATATTCTACACACCAACAACAAACATATAT [CACACA_site567] | 10
ATATTCTGATTTTAGATGCACTTCGTTAACAAAATA [GTGCAC_site9958] | 9.41
ATATATATATTTATATGTACATAATATAAAATTTCT [XGTACX_site3720] | 9.63
ATAAATCTACACCGCACACAAAAACAACAAATATTA [CACACA_site5396] | 10.1
AATGAATATATATAAATATATATATATATATATATA [CACACA_negctrl_site1494] | 9.48
ATATTTGTATAAATTGCACACTTTATTTTTTTTAAG [CACACA_site1558] | 9.61
ATGTTATTACATAATTGTACATTTTGAGCAATTAAG [XGTACX_site4640] | 9.51
AAACGTAACATATATATATATATATATAAGATATAT [CACACA_negctrl_site126] | 9.69
TTAGCTTTTTTTTAAACATGCAACTACTTGATCCAC [TGCATGCA_site1017] | 9.5
TTTTTTTTTTTTTCTTCACACACAGTACTACTATTT [CACACA_site8759] | 10.1
GGTATATGCATAAAGAGTACGTAACTTCTTTTTGTT [XGTACX_site6344] | 9.7
ATAAGATGATTAATTACACACTTTATAGGATATTTA [CACACA_site1711] | 9.6
AAATGTGTAAATATAATTAGTTTCACAAAACAAATA [GTGCAC_negctrl_site543] | 9.76
TATTTATTATTATGTACACACTATATTAAAACATAA [CACACA_site4549] | 9.56
AGTATACGCAGACACACACACACATATATATATATA [CACACA_site1735] | 10.8
TATGTGAATCCTAAGTGTACACATCTTACATATATA [XGTACX_site2506] | 9.8
GTTGAACATAGATGCACACACATAAAATAAAAAAAA [CACACA_site5353] | 10.1

Sequence | gcPBM binding intensity (ln)
ACATATATATATAAATATATATATATATAAATATAT [CACACA_negctrl_site895] | 9.7
TGTTTAAATTTTTTGTTTTTTTTTTTATAAAGCAAA [TGCATGCA_negctrl_site313] | 9.25
TGAAGGTCAGTTCACAGTACCCAGTAACTCTACGGA [XGTACX_site2554] | 9.42
TATATTTTTTTAAAAAGTACTTTGTATATATATATA [XGTACX_site1300] | 9.57
TTGTTGTTATTTAAAACACACATCAATCATCTTAAC [CACACA_site1142] | 9.72
TTAAATTAAAACAAATGTACAAAGTGCATATTTTTT [XGTACX_site8143] | 9.43
ATTTTTTTTTCTTTCGCACACGTGAAAGAATTTCTA [CACACA_site2052] | 9.9
ATATTATATTATATAACACACATTTTTCATAACACT [CACACA_site407] | 9.91
ATAATTTAATACTAGTGTACAGAAAAAAAAAAAAAA [XGTACX_site6756] | 9.59
TTACGCATACTAATTACACACAAATAGATGAATATA [CACACA_site1338] | 9.69
ATAAAAAAATAAATTAGTACATATATATATATATAT [XGTACX_site6971] | 9.55
TATTGTTATGTCGTTATTAACTTTCTTTAATTAATT [CACACA_negctrl_site174] | 9.7
AAATATTCATAGTATACACACATTTATATATAATCA [CACACA_site771] | 9.76
TGAAAGTTCAATAATTGTACATGTGGAAATTCATAC [XGTACX_site1378] | 9.69
AAAATTATAAATCTTGCACACAAAAAAAATAATAAA [CACACA_site8771] | 9.83
TTTTCATTTATGTATATATTTATTTTGATTTAATGT [GTGCAC_negctrl_site607] | 9.66
AATTATTTTATGTGAGGTACACCACACATGAAGGGG [XGTACX_site8450] | 9.59
TAAATATATTCAATCACACACATTCGTTTTTTTTTT [CACACA_site234] | 9.97
